Measured values reported in PubChem BioAssay AID1466 (National Center for Advancing Translational Sciences (NCATS), 2008).
Screen size: about 200,000 compounds; about 10 (0.005%) were called active. This list was built around the results that the source calls inconclusive (neither active nor inactive); the mix of calls is not that of the screen. Calls follow the shape of the dose curve; as a rule, active = well fitted inhibition curve with a large enough effect; inconclusive = small, poorly fitted or top-dose-only effect, or effect the other way, or another doubt; inactive = no such curve, though single readings can be large or run the other way. Potencies of inconclusive entries are doubtful fits and often do not repeat.

The molecules below were run against Lysosomal alpha-glucosidase (Homo sapiens) (UniProt P10253) (assay: qHTS Assay for Inhibitors of Human alpha-Glucosidase as a Potential Chaperone Treatment of Pompe Disease). Settings: purified human GAA, 4-MU-alpha-glucoside fluorescence; activity change, negative = inhibition: at 76.9 µM (top of the series) unless noted.
How it was run: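 Activity normalized between no-enzyme (basal) and enzyme-only wells. Conditions: 4 nM human enzyme, 400 uM fluorogenic substrate, citrate/phosphate pH 5.0 with Tween-20, 20 min room temperature, compounds up to 77 uM.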
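For activity change, negative = inhibition in this document: plate controls were uninhibited enzyme wells for no effect and no-enzyme background for full effect.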
Potency is read from the fitted curve at half-maximal effect; tags tell the direction and shape of the fitted curve.

Compound | Potency | activity change, negative = inhibition
CSc1cccc(NC(=O)N2CCCC(CNS(=O)(=O)Cc3ccccc3)C2)c1 (configuration not stated) | inconclusive: 1.78 µM [inhibitor, full curve] | 
Clc1ccc2nc(N3CCCCC3)[nH]c2c1 |  | inactive: 5.96%
O=C(NCCc1ccccc1)c1ccccc1NS(=O)(=O)N1CCCC1 | inconclusive: 12.6 µM [inhibitor, single point] | 
Cn1nnnc1SCC(=O)Nc1ccc(Br)cc1Cl | inconclusive: 56.2 µM [inhibitor, single point] | 
CCC(C)NC(=O)C1CCN(C(=O)N(C)C)CC1 (configuration not stated) | inconclusive: 28.2 µM [inhibitor, partial curve] | 
COc1ccc(CN2CCC(CO)(CCOc3ccccc3)CC2)c(OC)c1C | inconclusive: 17.8 µM [inhibitor, partial curve] | 
CC(Sc1ccccc1)C(=O)NN=C1CCCC1 (configuration not stated) | inconclusive: 0.282 µM [activator, full curve, poor fit] | 
Cc1ccnc(NC(=O)c2cc(S(=O)(=O)N3CCCCC3)ccc2Cl)c1 |  | inconclusive: 15.5% [activator]
Cc1cccc(C(=O)C2CCOC(C)(C)C2)c1 (configuration not stated) |  | inconclusive: -17% [inhibitor]
Nn1cc(-c2ccccc2)nc1SCC(=O)N1CCN(S(=O)(=O)c2ccccc2)CC1 | inconclusive: 35.5 µM [inhibitor, partial curve] | 
C/C=C/C=N/Nc1nc(-c2ccc([N+](=O)[O-])cc2)cs1 | inconclusive: 11.2 µM [inhibitor, single point] | 
CN(C)c1ccc(/C=N/NC(=O)CNC(=O)c2ccc3c(c2)OCCO3)cc1 | inconclusive: 35.5 µM [activator, partial curve] | 
O=S(=O)(NCc1csc(-c2cccnc2)n1)c1ccc2c(c1)OCCO2 | inconclusive: 7.08 µM [inhibitor, single point] | 
CCOc1ccccc1OCc1nn2c(COc3ccccc3)nnc2s1 |  | inactive: 2.41%
C=CCn1c(O)c(N=NC(=S)Nc2ccccc2C)c2cc(S(=O)(=O)N3CCOCC3)ccc21 | inconclusive: 20 µM [inhibitor, partial curve] | 
C/C(=N\NC(=O)CSc1nc2ccccc2s1)c1ccco1 | inconclusive: 0.158 µM [inhibitor, full curve, poor fit] | 
Cc1ccc(S(=O)(=O)N2CCN(C(=O)CN3CCOCC3)C2c2ccccc2)cc1 (configuration not stated) | inconclusive: 56.2 µM [inhibitor, single point] | 
CC(C)C1OC2(C)OC(=N)C1(C#N)C(C#N)(C#N)C2c1ccccc1 (configuration not stated) | inconclusive: 35.5 µM [activator, partial curve] | 
Cc1ccc2nc(C(=O)N3CCc4c([nH]c5ccccc45)C3c3ccccn3)cn2c1 (configuration not stated) |  | inconclusive: 4.57% [activator]
COc1ccccc1[C@@H]1C(c2cccc(C)c2)=NN(c2ccccc2)[C@H]1C(=O)N1CCOC1=O |  | inconclusive: 24.6% [activator] [at 15.4 µM]
COC(=O)c1ccc(-n2c(C)cc(C(=O)CSc3ccc(NC(C)=O)cc3)c2C)cc1 | inconclusive: 35.5 µM [inhibitor, single point] | 
COc1ccc(N2CC(C(=O)OCC(=O)c3cccc(OC)c3)CC2=O)cc1 (configuration not stated) |  | inconclusive: 11.6% [activator]
CC(=O)Nc1sc(N)nc1-c1ccccc1 | inconclusive: 56.2 µM [inhibitor, single point] | 

Compound | Potency | activity change, negative = inhibition
COc1ccc2c(c1)C=C(CN1CCN(C3CCCC3)C(CCO)C1)CO2 (configuration not stated) |  | inconclusive: 17.9% [activator]
CCc1ccc(NC(=O)CSc2nnc(Cc3cccn3C)n2-c2ccc(F)cc2)cc1 | inconclusive: 0.316 µM [inhibitor, full curve] | 
CC(=O)C1=C(C)NC(SCC(=O)Nc2nc3ccccc3s2)=C(C#N)C1c1ccc(Cl)cc1 (configuration not stated) | inconclusive: 28.2 µM [inhibitor, single point] | 
CCc1ccc(/C=N/NC(=O)c2ccc(OC3CCCC3)cc2)s1 |  | inconclusive: 19.8% [activator]
O=C(CCCC(=O)N(CC(=O)NC1CCCCC1)CC1CCCO1)Nc1ccccn1 (configuration not stated) | inconclusive: 12.6 µM [inhibitor, single point] | 
O=c1nc(N2CCCC2)nc(Nc2ccccc2)[nH]1 | inconclusive: 39.8 µM [inhibitor, single point] | 
CCCOc1ccc(-c2nc(OCC)c3ccccc3n2)cc1 | inconclusive: 35.5 µM [inhibitor, single point] | 
O=C(Nc1ccc(S(=O)(=O)N2CCCC2)cc1)c1ccc2c(=O)n3c(nc2c1)CCCCC3 | inconclusive: 12.6 µM [inhibitor, single point] | 
Cc1ccnn1CC(=O)N/N=C/c1ccco1 |  | inconclusive: 11.1% [activator]
O=C(CN1C(=O)NC2(CCOc3ccccc32)C1=O)Nc1ccc2c(c1)OCCO2 (configuration not stated) | inconclusive: 1.41 µM [inhibitor, full curve] | 
COC(=O)c1cn(C(=O)/C=C/c2ccc(OC)c(OC)c2)c2ccccc12 | inconclusive: 56.2 µM [activator, single point] | 
CC(=O)Nc1ccc(OCC(O)CN2C(C)CCCC2C)cc1 (configuration not stated) | inconclusive: 56.2 µM [inhibitor, single point] | 
Cn1c(NCc2ccco2)nc2c1c(=O)n(Cc1ccc(Cl)cc1)c(=O)n2C | inconclusive: 10 µM [inhibitor, partial curve] | 
CCC(=O)NCCNc1nc2cc(C)c(C)cc2cc1C#N | inconclusive: 25.1 µM [activator, partial curve] | 
O=C(Nc1c(Cl)ccc2nsnc12)c1ccco1 | inconclusive: 0.178 µM [inhibitor, full curve, poor fit] | 
c1cc(CNC23CC4CC(CC(C4)C2)C3)ccn1 |  | inconclusive: 15.5% [activator]
COC(=O)c1ccc(COc2cc([N+](=O)[O-])cc3cccnc23)o1 |  | inconclusive: 19.2% [activator]
NCCCNC(=O)c1ccc(/C=N/O)nc1 |  | inconclusive: 16.3% [activator]
Clc1ccccc1-c1nc(/C=N/N2CCOCC2)c2ccccn12 |  | inconclusive: 15.5% [activator]
CCOC(=O)N1CCN(C(=O)CSc2nnc(-c3ccc(C)c(C)c3)o2)CC1 | inconclusive: 1.26 µM [inhibitor, full curve, poor fit] | 
Oc1ccc(C=Nc2ccccc2-c2nc3ccccc3[nH]2)c(O)c1 | inconclusive: 39.8 µM [activator, single point] | 
O=C(O)c1cccc(NC(=S)NCc2ccccc2)c1 |  | inconclusive: 18.2% [activator]
CCOc1ccccc1NC(=O)C(NC(=O)C1CCC(C)CC1)C(C)C (configuration not stated) | inconclusive: 0.158 µM [activator, full curve, poor fit] | 

Compound | Potency | activity change, negative = inhibition
CCOc1ccccc1C1C(C#N)=C(N)Oc2n[nH]c(CC)c21 (configuration not stated) |  | inactive: -4.17%
CSC1=NCCN1C(=O)c1c(F)cccc1Cl | inconclusive: 50.1 µM [inhibitor, single point] | 
COc1ccc(CNC(=O)C2CCN(S(=O)(=O)c3ccc(-c4nn[nH]n4)cc3)CC2)cc1 | inconclusive: 17.8 µM [inhibitor, partial curve] | 
O=C(CSc1nc2ccccc2c(=O)n1NC(=O)c1ccccc1)c1ccccc1 | inconclusive: 0.224 µM [inhibitor, full curve, poor fit] | 
CC1=C(C(=O)Nc2ccccc2)C(c2cccnc2)n2ncnc2N1 (configuration not stated) | inconclusive: 3.55 µM [inhibitor, partial curve] | 
COc1cccc(Oc2cn[nH]c2-c2ccc(O)cc2O)c1 | inconclusive: 50.1 µM [inhibitor, single point] | 
COc1ccc2cc3cc(C(=O)NCc4cccnc4)oc3nc2c1 | inconclusive: 31.6 µM [activator, partial curve] | 
COc1cc(OC)cc(C(=O)Nc2nnc(-c3cccnc3)o2)c1 | inconclusive: 3.16 µM [inhibitor, partial curve] | 
CCOC(=O)C1CCN(Cc2nnnn2CCc2ccccc2)CC1 |  | inactive: 7.75%
O=C(Nc1cccc(CCc2ccccn2)c1)c1ccc(Cl)cc1 | inconclusive: 44.7 µM [inhibitor, partial curve] | 
CC(C)CNC(=O)CC1Nc2ccccc2NC1=O (configuration not stated) |  | inconclusive: 22.8% [activator]
COCCN(Cc1cc2ccc(C)c(C)c2nc1Cl)C(=O)N1CCOCC1 | inconclusive: 1.41 µM [activator, single point] | 
O=C(NC1CCCC1)C(=O)N(Cc1cccnc1)C(C(=O)NCC1CCCO1)c1ccco1 (configuration not stated) |  | inconclusive: 18% [activator]
CCOC(=O)C1(Cc2ccc(OC)cc2)CCN(C(=O)C2=CCCC2)CC1 |  | inconclusive: 13.8% [activator]
CCOc1ccc(Nc2nc(Cc3nnc(SCC(=O)O)o3)cs2)cc1 |  | inactive: 8.3%
O=C(N/N=C/c1ccc(O)c(O)c1)c1ccc(CSc2cccc3cccnc23)cc1 |  | inactive: -7.74%
O=C(CN(C1CCCCC1)S(=O)(=O)c1ccccc1)N1CCCC1 |  | inconclusive: -19% [inhibitor]
COc1cc2c(cc1NC(=O)Nc1ccc(C)cc1)oc1ccccc12 | inconclusive: 11.2 µM [inhibitor, single point] | 
CCN(C(=O)c1cnc(N2CCN(c3ncccn3)CC2)c2ccccc12)c1cccc(Cl)c1 | inconclusive: 50.1 µM [inhibitor, single point] | 
Cc1cc(C)cc(Nc2ccc(C(=O)O)cc2N)c1 | inconclusive: 25.1 µM [activator, partial curve] | 
CCC(COC)NCc1cn(-c2ccc(F)cc2F)nc1-c1ccccc1C (configuration not stated) | inconclusive: 11.2 µM [inhibitor, single point] | 
